# From PMC4336329 (PLoS ONE, 2015)
# About 2,200 (0.71%) of roughly 310,000 compounds showed an effect of 50% or more. Effects have a minus sign here. The list shows a part of the results.
# Molecular target: human ether-à-go-go-related gene (hERG) potassium channel (human, UniProt Q12809)
# Test: primary screen, population patch clamp on CHO cells stably expressing hERG
# Chain of human ether-à-go-go-related gene (hERG) potassium channel (Q12809 whole entry, looked up): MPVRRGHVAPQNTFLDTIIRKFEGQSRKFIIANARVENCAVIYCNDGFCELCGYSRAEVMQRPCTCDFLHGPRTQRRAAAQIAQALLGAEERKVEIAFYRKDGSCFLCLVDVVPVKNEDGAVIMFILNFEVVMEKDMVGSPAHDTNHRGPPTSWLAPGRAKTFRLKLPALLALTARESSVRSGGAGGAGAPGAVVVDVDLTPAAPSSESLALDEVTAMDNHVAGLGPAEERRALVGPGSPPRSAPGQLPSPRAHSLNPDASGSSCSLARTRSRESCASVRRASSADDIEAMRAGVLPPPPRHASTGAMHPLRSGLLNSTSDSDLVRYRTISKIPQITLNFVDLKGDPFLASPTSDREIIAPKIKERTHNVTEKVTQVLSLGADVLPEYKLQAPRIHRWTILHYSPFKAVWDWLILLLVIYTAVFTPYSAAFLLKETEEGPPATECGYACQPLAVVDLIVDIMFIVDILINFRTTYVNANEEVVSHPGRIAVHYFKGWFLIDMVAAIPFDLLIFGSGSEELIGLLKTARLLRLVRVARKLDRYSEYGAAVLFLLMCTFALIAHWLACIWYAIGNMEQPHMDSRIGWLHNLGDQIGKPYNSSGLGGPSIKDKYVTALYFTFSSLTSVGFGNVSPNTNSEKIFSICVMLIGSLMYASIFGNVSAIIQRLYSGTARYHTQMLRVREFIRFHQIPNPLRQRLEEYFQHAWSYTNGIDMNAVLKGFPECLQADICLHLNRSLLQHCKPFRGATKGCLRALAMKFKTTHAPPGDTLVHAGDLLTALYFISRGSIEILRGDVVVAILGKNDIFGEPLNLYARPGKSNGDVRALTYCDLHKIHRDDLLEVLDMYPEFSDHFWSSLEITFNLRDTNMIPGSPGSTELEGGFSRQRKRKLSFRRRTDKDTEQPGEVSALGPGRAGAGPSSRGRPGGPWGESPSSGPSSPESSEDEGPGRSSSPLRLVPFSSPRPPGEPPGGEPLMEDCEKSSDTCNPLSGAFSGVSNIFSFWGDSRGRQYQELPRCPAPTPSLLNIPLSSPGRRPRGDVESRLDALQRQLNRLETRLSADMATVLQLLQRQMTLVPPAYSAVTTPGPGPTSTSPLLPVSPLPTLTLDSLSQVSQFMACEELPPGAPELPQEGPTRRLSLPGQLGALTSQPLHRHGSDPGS
row,SMILES,"hERG current change (%, negative = inhibition) at 1uM"
1,O=C(Cc1ccc(Cl)cc1)Nc1cccc(C(=O)Nc2ccccc2C(=O)O)c1,14.6%
2,Cc1nnc(OC(C)C)c2nn(-c3ccccc3F)c(C)c12,5.1%
3,COc1ccc(-n2ncc3c(NCCCN4CCOCC4)ncnc32)cc1,7.9%
4,CCN1/C(=C/C=C/c2oc3ccc(-c4ccccc4)cc3[n+]2CC)Oc2ccc(-c3ccccc3)cc21.CCOS(=O)(=O)[O-],-2.56%
5,CCOC(=O)c1c(-c2ccccc2)nnn1-c1nc(OC)nc(N2CCOCC2)n1,-3.86%
6,CCN(Cc1cc(=O)n2ccsc2n1)Cc1nc2cc(OC)c(OC)cc2c(=O)[nH]1,6.28%
7,COC(=O)c1ccccc1NC(=O)Cn1c(CCC(=O)O)ccc1-c1cccs1,17.6%
8,CCOC(=O)c1c(NC(=O)C(F)(OC)C(F)(F)F)sc(C(=O)N2CCCCC2)c1C (stereo not drawn),4.04%
9,O=C(CS(=O)(=O)Cc1ccccc1)Nc1ccccc1Cl,2.86%
10,N[C@H]1CONC1=O,15.2%
11,CN(NC(=O)/C=C/C(=O)O)c1ncc(C(F)(F)F)cc1Cl,4.18%
12,Nc1ccc2c(c1)C(=O)c1ccccc1C2=O,17%
13,CN(C)CCOC(=O)CCc1ccccc1.Cl,4.63%
14,O=C(Nc1cccc(F)c1)C1CCCN(S(=O)(=O)c2ccccc2)C1 (stereo not drawn),16.6%
15,O=C(Nc1nc(-c2ccccn2)cs1)c1ccc(Cl)s1,9.8%
16,COc1cccc(N/C(N)=N/c2nc(C(F)(F)F)cc(C(F)(F)F)n2)c1,4.65%
17,Cc1ccc(S(=O)(=O)Nc2cccc(C(=O)NCCCN3CCOCC3)c2)cc1F,-3.66%
18,COc1ccc(-c2cc(C(=O)NCCc3ccc(S(N)(=O)=O)cc3)c3ccccc3n2)cc1,11.6%
19,O=C(C1=C[C@@H](c2coc3ccccc3c2=O)C[C@@H](OCc2ccc(CO)cc2)O1)N1CCCCCCC1,-7.57%
20,Cc1ccc(C(=O)Nc2ccc(C(=O)/C=C/c3cccs3)cc2)cc1,12.1%
21,O=C(Nc1ccc(-c2nc3ccccc3c(=O)o2)cc1)c1ccco1,3.85%

row,SMILES,"hERG current change (%, negative = inhibition) at 1uM"
1,N#Cc1c(/N=C/c2cccs2)sc2c1CCCCC2,-3.37%
2,COC(=O)c1cc2c(ccn2-c2ccc(F)cc2)n1Cc1ccc(OC(C)=O)cc1,11.2%
3,O=C(Cc1ccccc1)NNc1c2ccccc2nc2ccccc12,10.4%
4,CCOC(=O)c1cc2c(=O)n3ccccc3nc2n(CC(C)C)c1=NC(=O)c1c(-c2c(F)cccc2Cl)noc1C,9.22%
5,CC(Sc1nnc(NCc2ccccc2)s1)C(=O)Nc1ccc2c(c1)C(=O)c1ccccc1C2=O (stereo not drawn),15.4%
6,O=c1c[n+]([O-])c2ccccc2n1OCc1c(F)cccc1F,8.5%
7,O=C(CCc1ccc(S(=O)(=O)N2CCOCC2)cc1)N1CCc2ccccc2C1,-8.69%
8,O=S(=O)(Nc1ccc2c(c1)OCO2)c1ccc(Cl)cc1F,-2.54%
9,COC(=O)c1sccc1NC(=O)CSc1ccccc1NS(=O)(=O)c1ccc(F)cc1,7.96%
10,Cc1[nH]nc(S(=O)CC(=O)O)c1[N+](=O)[O-] (stereo not drawn),19.8%
11,COc1cc(/C=C/C(=O)NCc2nc3ccccc3[nH]2)cc(OC)c1OC,13.9%
12,COc1ccc(S(=O)(=O)CCC(=O)Nc2ccc(OC)cc2OC)cc1,-0.708%
13,Cn1c(=O)c2ncn(CC(=O)N=Nc3c(O)[nH]c4ccccc34)c2n(C)c1=O,16.9%
14,Cc1cccc(OCC(=O)NCC(=O)N/N=C/c2ccc(N(C)C)cc2)c1,-9.84%
15,CN(CC(=O)Nc1cccc(F)c1)C(=O)/C=C/c1ccc(Br)s1,10.9%
16,COc1cccc(CNC(=O)C(C)n2ccc3cc(S(=O)(=O)N4CCCC4)ccc32)c1 (stereo not drawn),11.9%
17,COc1ccccc1N1CCN(c2ncnc3nc[nH]c23)CC1,6.12%
18,CCOC(=O)c1ccc(OCc2c(C)noc2C)cc1,3.79%
19,Cc1nn(CC(N)=O)c(=O)c2ccccc12,-2.76%
20,Cc1ccc(Sc2ncccc2O)cc1,13.4%
21,CCOc1ccc(N(C(C)C(=O)NN=C2CCCCCCC2)S(C)(=O)=O)cc1 (stereo not drawn),13.6%
